Drawing on the supplement of paper PMC4604168 (melanoma cell lines), this text covers cell count for 34 compounds.

The list shows a part of the results. Many values rest on one well or one pass, so single values are uncertain.
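Also: cells treated in 1,536-well plates, then fixed and DAPI-stained, with nuclei counted from automated high-throughput microscope images.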

This experiment has as its system A101D. Description: cell count relative to DMSO control; melanoma cells; higher = more viable cells. To be noted: library dose: standard library concentration; 72 h.
For the compound `NC(=O)c1ccc(N(C(N)=O)c2c(F)cccc2F)nc1-c1ccc(F)cc1F` + O=C(O)c1ccc2c(c1)nc(Nc1cccc(Cl)c1)c1ccncc12 [CX4945] (first compound 2 µM, partner dose 2 µM), the cell count was 76.4%. On to `CCCCCCCCc1ccc(CCC(N)(CO)CO)cc1` [fingolimod] + Nc1ncn([C@H]2C[C@H](O)[C@@H](CO)O2)c(=O)n1 [decitabine] (first compound 10 µM, partner dose 0.5 µM), for which the cell count worked out at 4.92%. In the case of `CCCCCCCCc1ccc(CCC(N)(CO)CO)cc1` [fingolimod] + Cn1c(=O)n(-c2ccc(C(C)(C)C#N)cc2)c2c3cc(-c4cnc5ccccc5c4)ccc3ncc21 [NVP-BEZ235] (first compound 10 µM, partner dose 0.02 µM), the cell count is 4.58%. Compound `NC(=O)c1ccc(N(C(N)=O)c2c(F)cccc2F)nc1-c1ccc(F)cc1F` + C[C@@H]1CCN(C(=O)CC#N)C[C@@H]1N(C)c1ncnc2[nH]ccc12 [CP690550] (first compound 2 µM, partner dose 5 µM) gave a cell count of 92.5%. Turning to `CCCCCCCCc1ccc(CCC(N)(CO)CO)cc1` [fingolimod] + CN(C)S(=O)(=O)c1ccc2c(c1)/C(=C/c1cc3c([nH]1)CCCC3)C(=O)N2 [SU6656] (first compound 10 µM, partner dose 2 µM), the cell count was 4.51%. Compound `CCCCCCCCc1ccc(CCC(N)(CO)CO)cc1` [fingolimod] + COc1ccc(Cl)c(Nc2nc3ccccc3nc2NS(=O)(=O)c2cccc(NC(=O)C(C)(C)N)c2)c1 [XL147] (first compound 10 µM, partner dose 4 µM) had a cell count of 13.8%. In the case of `CC(C)(C)c1cnc(CSc2cnc(NC(=O)C3CCNCC3)s2)o1` + CN(NC(=O)CC(=O)NN(C)C(=S)c1ccccc1)C(=S)c1ccccc1 [STA4783] (first compound 0.05 µM, partner dose 0.03 µM), the cell count turned out to be 41.5%. `CCCCCCCCc1ccc(CCC(N)(CO)CO)cc1` [fingolimod] + Nc1ccn([C@@H]2O[C@H](CO)[C@@H](O)C2(F)F)c(=O)n1 [gemcitabine] (first compound 10 µM, partner dose 0.002 µM) came in with a cell count of 10.7%. For `CCCCCCCCc1ccc(CCC(N)(CO)CO)cc1` [fingolimod] + CC(C)(C)c1cnc(CSc2cnc(NC(=O)C3CCNCC3)s2)o1 [SNS-032] (first compound 10 µM, partner dose 0.05 µM) the value was 3.64%; for `CCCCCCCCc1ccc(CCC(N)(CO)CO)cc1` [fingolimod] + O=C(CCCCCCC(=O)Nc1ccccc1)NO [vorinostat] (first compound 10 µM, partner dose 0.4 µM), 5.02%.

The compound `NC(=O)c1ccc(N(C(N)=O)c2c(F)cccc2F)nc1-c1ccc(F)cc1F` + Clc1ccc(Nc2nnc(Cc3ccncc3)c3ccccc23)cc1 [vatalanib] (first compound 2 µM, partner dose 10 µM) gave a cell count of 91.3%. In the case of `NC(=O)c1ccc(N(C(N)=O)c2c(F)cccc2F)nc1-c1ccc(F)cc1F` + CCCS(=O)(=O)Nc1ccc(F)c(C(=O)c2c[nH]c3ncc(Cl)cc23)c1F [PLX4720] (first compound 2 µM, partner dose 0.4 µM), the cell count is 79.4%. The compound `CC(C)(C)c1cnc(CSc2cnc(NC(=O)C3CCNCC3)s2)o1` + NCC(=O)Nc1ccc(-n2nc(C(F)(F)F)cc2-c2ccc3c(ccc4ccccc43)c2)cc1 [OSU03012] (first compound 0.05 µM, partner dose 5 µM) gave a cell count of 69.1%.

In the case of `NC(=O)c1ccc(N(C(N)=O)c2c(F)cccc2F)nc1-c1ccc(F)cc1F` + O=C(CCCCCCC(=O)Nc1ccccc1)NO [vorinostat] (first compound 2 µM, partner dose 0.4 µM), the cell count came out at 86.8%. `NC(=O)c1ccc(N(C(N)=O)c2c(F)cccc2F)nc1-c1ccc(F)cc1F` + CN(C)S(=O)(=O)c1ccc2c(c1)/C(=C/c1cc3c([nH]1)CCCC3)C(=O)N2 [SU6656] (first compound 2 µM, partner dose 2 µM) yielded a cell count of 68.2%. Turning to `Cc1ccc(NC(=O)c2cccc(N(C)C)c2)cc1NC(=O)c1ccc(O)cc1` + O=C(Nc1cccc(Cl)c1)Nc1ncc(CCNc2ncnc3ccsc23)s1 [SNS314] (first compound 10 µM, partner dose 0.004 µM), the cell count turned out to be 68.4%.

With `CC(C)(C)c1cnc(CSc2cnc(NC(=O)C3CCNCC3)s2)o1` + O=S(=O)(c1ccccc1)N(CC(F)(F)F)c1ccc(C(O)(C(F)(F)F)C(F)(F)F)cc1 [T0901317] (first compound 0.05 µM, partner dose 7 µM), the cell count was found to be 66.9%. As for `CC(C)(C)c1cnc(CSc2cnc(NC(=O)C3CCNCC3)s2)o1` + NC(=O)Nc1cc(-c2cccc(F)c2)sc1C(=O)N[C@H]1CCCNC1 [AZD7762] (first compound 0.05 µM, partner dose 0.1 µM), the cell count worked out at 50.2%. `CCCCCCCCc1ccc(CCC(N)(CO)CO)cc1` [fingolimod] + C=CCn1c(=O)c2cnc(Nc3ccc(N4CCN(C)CC4)cc3)nc2n1-c1cccc(C(C)(C)O)n1 [MK1775] (first compound 10 µM, partner dose 0.1 µM) gave a cell count of 4%. For the compound `NC(=O)c1ccc(N(C(N)=O)c2c(F)cccc2F)nc1-c1ccc(F)cc1F` + CS(=O)(=O)c1ccc(C(=O)Nc2ccc(Cl)c(-c3ccccn3)c2)c(Cl)c1 [vismodegib] (first compound 2 µM, partner dose 5 µM), the cell count turned out to be 126%. As for `CCc1ccc(CCOc2ccc(CC3SC(=O)NC3=O)cc2)nc1` (centres undefined) [pioglitazone] + O=C(O)C(=O)Nc1sc2c(c1C(=O)O)CCNC2 [TCS401] (first compound 10 µM, partner dose 8.33333 µM), the cell count was 122%. In turn, `CCCCCCCCc1ccc(CCC(N)(CO)CO)cc1` [fingolimod] + Cc1cc(N2CCOCC2)cc2[nH]c(-c3c(NC[C@@H](O)c4cccc(Cl)c4)cc[nH]c3=O)nc12 [BMS536924] (first compound 10 µM, partner dose 1 µM) had a cell count of 4.68%. Consider `NC(=O)c1ccc(N(C(N)=O)c2c(F)cccc2F)nc1-c1ccc(F)cc1F` + Cn1cncc1[C@@](N)(c1ccc(Cl)cc1)c1ccc2c(c1)c(-c1cccc(Cl)c1)cc(=O)n2C [tipifarnib] (first compound 2 µM, partner dose 0.05 µM), for which the cell count is 72.5%.

As for `CCCCCCCCc1ccc(CCC(N)(CO)CO)cc1` [fingolimod] + C=C(c1ccc(C(=O)O)cc1)c1cc2c(cc1C)C(C)(C)CCC2(C)C [Bexarotene] (first compound 10 µM, partner dose 10 µM), the cell count amounted to 4.8%.

Regarding `Cc1ccc(NC(=O)c2cccc(N(C)C)c2)cc1NC(=O)c1ccc(O)cc1` + CO[C@@H]1[C@H](N(C)C(=O)c2ccccc2)C[C@H]2O[C@]1(C)n1c3ccccc3c3c4c(c5c6ccccc6n2c5c31)C(=O)NC4 [Midostaurin] (first compound 10 µM, partner dose 0.4 µM), the cell count came out at 73.3%. `NC(=O)c1ccc(N(C(N)=O)c2c(F)cccc2F)nc1-c1ccc(F)cc1F` + Cc1cc(Nc2cc(N3CCN(C)CC3)nc(/C=C/c3ccccc3)n2)n[nH]1 [ENMD2076] (first compound 2 µM, partner dose 0.2 µM) registered a cell count of 86.9%.

`NC(=O)c1ccc(N(C(N)=O)c2c(F)cccc2F)nc1-c1ccc(F)cc1F` + OCCn1cc(-c2cnc3nnn(Cc4ccc5ncccc5c4)c3n2)cn1 [PF04217903] (first compound 2 µM, partner dose 5 µM): the cell count is 95.6%. The compound `CCCCCCCCc1ccc(CCC(N)(CO)CO)cc1` [fingolimod] + CN1CCN(c2ccc3nc(-c4c(N)c5c(F)cccc5[nH]c4=O)[nH]c3c2)CC1 [Dovitinib] (first compound 10 µM, partner dose 0.5 µM) returned a cell count of 4.3%. `CCCCCCCCc1ccc(CCC(N)(CO)CO)cc1` [fingolimod] + CC1(C)NC(=O)N(c2ccc([N+](=O)[O-])c(C(F)(F)F)c2)C1=O [nilutamide] (first compound 10 µM, partner dose 5 µM) returned a cell count of 4.69%. Compound `Cc1ccc(NC(=O)c2cccc(N(C)C)c2)cc1NC(=O)c1ccc(O)cc1` + OCCn1cc(-c2cnc3nnn(Cc4ccc5ncccc5c4)c3n2)cn1 [PF04217903] (first compound 10 µM, partner dose 5 µM) came in with a cell count of 114%.

Compound `NC(=O)c1ccc(N(C(N)=O)c2c(F)cccc2F)nc1-c1ccc(F)cc1F` + Nc1nc(F)nc2c1ncn2[C@@H]1O[C@H](CO)[C@@H](O)[C@@H]1O [fludarabine] (first compound 2 µM, partner dose 1 µM) displayed a cell count of 92.4%. Compound `NC(=O)c1ccc(N(C(N)=O)c2c(F)cccc2F)nc1-c1ccc(F)cc1F` + CC1(C)NC(=O)N(c2ccc([N+](=O)[O-])c(C(F)(F)F)c2)C1=O [nilutamide] (first compound 2 µM, partner dose 5 µM) came in with a cell count of 99.9%. Regarding `NC(=O)c1ccc(N(C(N)=O)c2c(F)cccc2F)nc1-c1ccc(F)cc1F` + CNC(=O)c1cc(Oc2ccc(NC(=O)Nc3ccc(Cl)c(C(F)(F)F)c3)cc2)ccn1 [sorafenib] (first compound 2 µM, partner dose 2 µM), the cell count was determined as 93.7%. Compound `CCCCCCCCc1ccc(CCC(N)(CO)CO)cc1` [fingolimod] + CCCS(=O)(=O)Nc1ccc(F)c(C(=O)c2c[nH]c3ncc(Cl)cc23)c1F [PLX4720] (first compound 10 µM, partner dose 0.4 µM) returned a cell count of 6.26%.
